Measured values published in PubChem BioAssay AID686978 (National Center for Advancing Translational Sciences (NCATS), 2013).
Several values for one entry are separate records, joined by “and”; a condition that tells them apart may be missing. Identical values can stand only once. Among all 420,000 compounds or so, about 64,000 (15%) were called active. Inconclusive results, whose numbers are uncertain, are shown with a selection of clear calls. The call rests on the fitted dose curve; in most records, active means well fitted inhibition curve with a large enough effect; inconclusive means small, poorly fitted or top-dose-only effect; inactive means flat fitted curve, though single readings scatter. Potencies of inconclusive entries are doubtful fits and often do not repeat.
On the % scale 0 is the no-effect control and ±100 the full control effect; potency means the concentration at half of the fitted maximal effect; tags describe the fitted curve by direction and shape.

Experiment: qHTS for Inhibitors of human tyrosyl-DNA phosphodiesterase 1 (TDP1): qHTS in cells in absence of CPT; further: nearly all actives have a fitted effect of over 55% in size
Conditions: DT40 Tdp1-/- hTDP1 cells, no CPT, ATP luminescence, 48 h; activity change, negative = growth inhibition: at 46.2 µM (top of the series) unless noted
Summary of the method: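 Stably hTDP1-transfected Tdp1-null chicken DT40 cells were treated with library compounds minus camptothecin and grown for at least 48 hr at 37 °C, after which cellular ATP was quantified by luminescence.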
For Cc1ccc(-n2c3nc(=O)n(C)c(=O)c-3cc3ccccc32)cc1, the Potency was inconclusive: 16.4 µM [inhibitor, partial curve].
For Cc1ccccc1N1CCN(C2CCCN(C(=O)c3cc(C(C)C)[nH]n3)C2)CC1 (stereo not given), the Potency was inconclusive: 16.4 µM [inhibitor, single point].
For Cc1ccc(OCc2cc(C(=O)NC(C)Cc3cccc(C)n3)no2)cn1 (stereo not given), the Potency was active: 7.31 µM.
In the case of CCC(=O)N1CCc2cc(S(=O)(=O)NCCC(=O)Nc3ccc(C)cc3)ccc21, the Potency is reported as inconclusive: 18.4 µM [inhibitor, single point].
In the case of COc1ccc(/C=N/n2cnc3scc(-c4cccs4)c3c2=O)cc1OC, the Potency is reported as inconclusive: 18.4 µM [inhibitor, single point].
For O=C(COc1ccccc1-c1nnc(-c2ccccc2)o1)Nc1ccc(Br)cc1F, the Potency was “inactive”.
In the case of Cc1cccc(Nc2nc(NCCCN3CCOCC3)nc(N)c2[N+](=O)[O-])c1, the Potency is reported as active: 14.6 µM.
In the case of Cc1ccc(Nc2nc(N)nc(CN3CCN(C(=O)c4ccco4)CC3)n2)cc1Cl, the Potency is reported as inconclusive: 25.9 µM [inhibitor, single point].
With COc1ccc(NC(=O)COC(=O)c2c(NC(C)=O)sc(C)c2C)cc1 the Potency was inconclusive: 23.1 µM [inhibitor, partial curve].
For O=C(OCCc1cc2ccccc2c(=O)o1)c1cccc(Br)c1, the Potency was “inactive”.
With C=CCN1C(=O)c2ccc(C(=O)OCC(=O)N3CCN(c4ccccc4)CC3)cc2C1=O the Potency was “inactive”.
In the case of CCCn1c(=O)c(C(=O)NCc2ccc3c(c2)OCO3)c(O)c2ccccc21, the Potency is reported as inconclusive: 18.4 µM [inhibitor, single point].
For O=C1CC(c2ccccc2)CN1Cc1ccccc1 (stereo not given), the Potency was inconclusive: 17.8 µM [inhibitor, single point].
In the case of Cc1ccc(CNC(=O)CCc2c(C)nc3nc(CNC(=O)OC(C)(C)C)nn3c2C)cc1, the Potency is reported as inconclusive: 11.6 µM [inhibitor, partial curve].
For CN(CCOc1ccccc1)C(=O)CNC(=O)c1ccc(C(C)(C)C)cc1, the Potency was inconclusive: 29.1 µM [inhibitor, single point].
For Cc1cc(C)c(S(=O)(=O)N2CCN(C(=O)C3CCCO3)CC2)c(C)c1 (stereo not given), the Potency was “inactive”.
In the case of COc1cccc2cc(CC(=O)c3ccc(C)cc3C)c(=O)oc12, the Potency is reported as “inactive”.
In the case of Cc1ccccc1NC(=O)Cn1nnc(-c2ccc(N3CCOCC3)cc2)n1, the Potency is reported as “inactive”.
In the case of CCCC(=O)NC(=S)Nc1sc2c(c1C(N)=O)CCC2, the Potency is reported as “inactive”.
With CCCCCCn1c(N2CCN(c3ccccc3)CC2)nc2c1c(=O)[nH]c(=O)n2C the Potency was inconclusive: 20.6 µM [inhibitor, single point].
In the case of Cc1cccc(/N=C/c2c(O)[nH]c3ccccc23)n1, the Potency is reported as inconclusive: 29.1 µM [inhibitor, single point].
For CCN(CC)c1ccc(NC(=O)c2ccc3c(c2)OCO3)cc1, the Potency was inconclusive: 14.6 µM [inhibitor, single point].
In the case of CN(CCN(C)C(=O)c1[nH]cnc1C(=O)Nc1ccccc1)C(=O)c1[nH]cnc1C(=O)Nc1ccccc1, the Potency is reported as inconclusive: 18.4 µM [inhibitor, single point].
In the case of CCc1nnnn1-c1ccc([N+](=O)[O-])cc1C, the Potency is reported as “inactive”.
With COc1ccc(C(=O)C(C)OC(=O)CNC(=O)c2ccco2)cc1 (stereo not given) the Potency was “inactive”.
For Cc1ccc(CSc2ncnc3c2cnn3-c2ccccc2)cc1, the Potency was inconclusive: 14.6 µM [inhibitor, partial curve, poor fit].
In the case of O=C(CN1C(=O)C2CC=CCC2C1=O)Nc1nc(-c2ccc(F)c(F)c2)cs1 (stereo not given), the Potency is reported as active: 20.6 µM.
With S=C(N=Nc1ccccc1)NNc1ccccc1 the Potency was inconclusive: 2.59 µM [inhibitor, full curve].
For O=c1[nH]c(Cc2ccccn2)nc2scc(-c3ccccc3Cl)c12, the Potency was inconclusive: 23.1 µM [inhibitor, single point].
With COC(=O)N/N=C(\C)c1ccccc1Br the Potency was “inactive”.
With CCCN(CC(=O)c1cc(C)n(C)c1C)S(=O)(=O)c1cccc(C(F)(F)F)c1 the Potency was inconclusive: 16.4 µM [inhibitor, single point].
For COc1cc(C(=O)n2nc(-c3ccco3)nc2NCc2ccc(Cl)cc2)cc(OC)c1OC, the Potency was inconclusive: 29.1 µM [inhibitor, single point].
For CCCCc1nc2cc(C(=O)N3CCNC(=O)C3CC(=O)OC)ccc2o1 (stereo not given), the Potency was “inactive”.
For C[C@@H]1CN([C@@H](C)CO)C(=O)c2cc(C#CC(C)(C)O)cnc2O[C@@H]1CN(C)C(=O)c1ccccc1F, the Potency was “inactive”.
For COc1ccc(-c2cc3ccccc3c(=O)o2)cc1, the activity change, negative = growth inhibition was inconclusive: -34.7% [inhibitor] [at 9.04 µM].
For CCN(CC)S(=O)(=O)c1ccc(N2CCCC2)c(NC(=O)c2ccc(N3CCCC3=O)cc2)c1, the Potency was inconclusive: 18.4 µM [inhibitor, single point].
With COc1cc2c(cc1O)CCN(C(=O)c1ccco1)C2C (stereo not given) the Potency was inconclusive: 4.11 µM [inhibitor, partial curve].
With COc1cc2nc(CN3CCN(S(=O)(=O)c4ccccc4[N+](=O)[O-])CC3)[nH]c(=O)c2cc1OC the Potency was inconclusive: 29.1 µM [inhibitor, single point].
With COCCn1c(C)cc(C(=O)CSc2nnc(C)s2)c1C the Potency was “inactive”.
In the case of COc1ccc(NC(=O)c2c(C)oc3ccc(O)c(CN4CCCC4)c23)cc1Cl, the Potency is reported as inconclusive: 18.4 µM [inhibitor, single point].
With O=C(NNC(=O)C1CCCN(S(=O)(=O)c2ccc3ccccc3c2)C1)C1CC1 (stereo not given) the Potency was inconclusive: 20.6 µM [inhibitor, partial curve].
For COCc1cccc(-c2csc(C(C)(NC(C)=O)c3ccccc3)n2)c1 (stereo not given), the Potency was active: 18.4 µM.
With Cc1c(C(=O)NCC2CCCO2)oc2ccc(Br)cc12 (stereo not given) the Potency was inconclusive: 29.1 µM [inhibitor, single point].
In the case of CN(CC(=O)Nc1ccc(F)cc1)C(=O)c1ccncc1, the Potency is reported as “inactive”.
With Cc1c(NC(=O)c2ccc(N3CCCC3)c([N+](=O)[O-])c2)cccc1-c1nc2ccccc2s1 the Potency was inconclusive: 25.9 µM [inhibitor, single point].
With Clc1cccc(C2Nc3cccc4cccc(c34)N2)c1 the Potency was active: 10.3 µM.
In the case of O=C(Nc1ccc2c(c1)OCO2)C1Cc2c(-c3ccncc3)ccnc2O1 (stereo not given), the Potency is reported as inconclusive: 29.1 µM [inhibitor, single point].
With O=c1[nH]nc(N/N=C/c2ccc(Cl)cc2Cl)c(=O)[nH]1 the Potency was inconclusive: 18.4 µM [inhibitor, partial curve].
For Cc1ccc(NC(=O)Cc2c(F)cccc2Cl)cc1S(=O)(=O)N1CCOCC1, the Potency was inconclusive: 16.4 µM [inhibitor, single point].
For CSCCC(NC(=O)c1cccc(C)c1)C(=O)Nc1sccc1C(N)=O (stereo not given), the Potency was inconclusive: 18.4 µM [inhibitor, single point].
With CCCCN1C(=O)C(=O)NC[C@@H]1CC1CCCCC1 the Potency was inconclusive: 23.1 µM [inhibitor, partial curve].
For CN(C)C(=O)COC(=O)c1ccccc1NC(=O)c1ccco1, the Potency was “inactive”.
With COCCn1cc(C(=S)N2CCCCC2)c2ccccc21 the activity change, negative = growth inhibition was inconclusive: -32.3% [inhibitor].
In the case of COc1cccc(NC2=C(NCCO)C(=O)c3ccccc3C2=O)c1, the Potency is reported as inconclusive: 7.31 µM [inhibitor, single point].
With COc1ccccc1C(=O)NNc1ncc(C)s1 the Potency was inconclusive: 18.4 µM [inhibitor, single point].
In the case of O=C1NC(=S)S/C1=C\c1cc(Cl)ccc1Cl, the Potency is reported as inconclusive: 18.4 µM [inhibitor, single point].
In the case of COc1ccc([N+](=O)[O-])cc1NC(=O)c1ccc(N(Cc2ccccc2C)S(C)(=O)=O)cc1, the Potency is reported as “inactive”.
In the case of Fc1ccc(CSc2ccc3nnc(-c4ccccn4)n3n2)cc1, the Potency is reported as inconclusive: 18.4 µM [inhibitor, single point].
With O=C(NCCn1cccn1)C1CCC(=O)N(CC2CCCCC2)C1 (stereo not given) the Potency was “inactive”.
In the case of Cc1ccc2nc(-c3ccc(Cl)cc3)cc(C(=O)OCC(=O)c3ccccc3)c2c1, the Potency is reported as active: 20.6 µM.
In the case of Nc1ncnc(N2CCc3ccccc32)c1[N+](=O)[O-], the Potency is reported as active: 7.31 µM.
With Cc1ccc(-c2csc(N3CCN(c4ccc5nc(-c6ccncc6)n(CCN6CCCCC6)c5c4)CC3)n2)cc1 the Potency was inconclusive: 18.4 µM [inhibitor, single point].
In the case of COc1ccc(CC(=O)NCC2CCCN(Cc3ccc(OC)cc3F)C2)cc1 (stereo not given), the Potency is reported as inconclusive: 23.1 µM [inhibitor, single point].
For N/C(=N\OC(=O)CCc1ccccc1)c1ccc(Br)cc1, the Potency was “inactive”.
In the case of O=C(O)c1ccccc1SCCS(=O)(=O)c1ccc(Cl)cc1Cl, the Potency is reported as “inactive”.
With CSc1nc(N)c(C(=O)N(c2ccccc2)c2ccccc2)s1 the Potency was inconclusive: 20.6 µM [inhibitor, single point].
For CCC(C(=O)NC1CCCCC1)n1c(SCc2ccc(F)cc2)nc2ccncc21 (stereo not given), the Potency was inconclusive: 32.6 µM [inhibitor, single point] and inconclusive: 11.6 µM [inhibitor, partial curve].
For CCC(=O)Nc1cccc(C2=NOC3(C2)C[C@@H](C(N)=O)N(C(=O)c2cc([N+](=O)[O-])cc([N+](=O)[O-])c2)C3)c1 (stereo not given in full), the Potency was “inactive”.
In the case of CCc1nc2ccccc2c(C(=O)OCc2nc3ccccc3c(=O)[nH]2)c1C, the Potency is reported as active: 4.61 µM.
With O=C(NCc1cc(C(F)(F)F)ccc1Cl)c1cccc2c1C(=O)c1ccc(N3CCCCC3)cc1S2(=O)=O the Potency was inconclusive: 9.2 µM [inhibitor, partial curve].
